Laboratory results: the RNAGym collection of RNA variant scans (doi:10.1073/pnas.2313332121)
Variants at the floor of the assay are shown more often than the library holds them.

B1: TPR 5TU (parent)
chain: GGAUCUUCUCGAUCUAACAAAAAAGACAAAUCUGCCACAAAGCUUGAGAGCAUCUUCGGAUGCAGAGGCGGCAGCCUUCGGUGGCGCGAUAGCGCCAACGUUCUCAACUAUGACACGCAAAACGCGUGCUCCGUUGAAUGGAGUUUAUCAUG

Variants of: B1
Assay: polymerase ribozyme fitness, log enrichment relative to wild type (log ratio); higher = more active; in vitro selection for triplet polymerase activity
In short: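 To select mutant libraries of each subunit of a heterodimeric triplet polymerase ribozyme, built by PCR and transcribed, each was annealed with a biotinylated primer, partner subunit and triplets, then incubated frozen at −7 °C. Extended constructs were gel-excised, captured on streptavidin beads and amplified by RT-PCR, in one round carried out in triplicate. Illumina sequencing of input and output libraries kept genotypes with ≥10 input reads and ≥1 read per output. Fitness is the base-2 logarithm of genotype enrichment relative to wild-type enrichment, from inverse-variance-weighted replicate averages.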

Variant | polymerase ribozyme fitness (log ratio)
A19U U33A G34A C79A C118U C125A C132U G133A A142C U148G | ≤ -4.2
A19U C99U G133C U144G | -2.25
A20C A26U U53A C76A A107C A122U G141U | ≤ -4.2
A19U A23G G42C G86A A106U | ≤ -4.2
A19U U77A G84C C85A U144A | ≤ -4.2
A20C U55A A110G | -3.9
A20C A28G C57U G58C A73U U77G C93U A106G C116G | ≤ -4.2
A20C A22U G25A U61A A89C A97G C132U | ≤ -4.2
A19U A24C G42A A52G C57U C96G C108A G126A U144C | ≤ -4.2
A20C A52C C79G | ≤ -4.2
A20C U55G G67U C72A C85U | ≤ -4.2
A20C A23G G59U C87G C149U | ≤ -4.2
A19U U144A | -0.138
A20G C57A A66C G88A A121C A147C | ≤ -4.2
A20G A22G U55A U90G G94A A120U | ≤ -4.2
A19U A24G A37C G74U C87G C95A G136U G140A G143U | ≤ -4.2
A20C A26U A41C A52C C105U G140C | ≤ -4.2
A19U C54G C79A U82C G84A A89C G92C U144C | ≤ -4.2
A20C G42C A47C G50C U82G A107U C116U A137G A138G | ≤ -4.2
A20C A98U | -1.29
A20C A28G A29U G59U A64G A113C C149G | ≤ -4.2
A20C U101G C149U | -1.64
A20G C93U C99U U104C C131U G133U | ≤ -4.2
A20C A28U U44A A49C G143A | ≤ -4.2

Variant | polymerase ribozyme fitness (log ratio)
A19U A24U A52G C54A A73U C79U C103A U130G G140C G141A | ≤ -4.2
A20C A28G A29U A40U C149G | ≤ -4.2
A20G A40U A41C C75G G92C C118U A120U U151G | ≤ -4.2
A19U A22G C32G C85A G88A C105U U151A | ≤ -4.2
A19U C36U A66U G71A C85G A147U | ≤ -4.2
A20C A41C U55C C93G C99U U102G | ≤ -4.2
A20C A60G G68A C75U A91C | ≤ -4.2
A20C G48A A52C U55G A66C C72G A91G A119C U144G | ≤ -4.2
A19U A60U C93U C114U | -4.17
A20G A28U A52U G59C G94A A107C C108A U134G | ≤ -4.2
A19U C43G G50A G70A C105U G112A A120G G143A C149A | ≤ -4.2
A20G C54A G92A C105U U145A C149A | ≤ -4.2
A20C C32U C38A A91C C96G | ≤ -4.2
A20G A49C U55A G68U G83A G84A G112A | ≤ -4.2
A19U U55G G86U | -1.7
A19U A40C A52U U55A C75A G141U U146A | ≤ -4.2
A20G A30C A66C U77A C87A A115C | ≤ -4.2
A20G A52G G58U C87U | -0.805
A19U G50C C87U C125G | ≤ -4.2
A20C A113U U127A | ≤ -4.2
A19U A28G A41C A49C U109G U145A C149G | ≤ -4.2
A20C C85A A97U | -3.02
A20C G133A | ≤ -4.2
A19U C38U C75U G83C G84U A91C U144C | ≤ -4.2

Variant | polymerase ribozyme fitness (log ratio)
A20C U45G C72A A73C A97U A119U | ≤ -4.2
A20C U55A A89G G94C C95A C108G C123G | ≤ -4.2
A20C A49C G88C U127A | ≤ -4.2
A19U C35G C57U U90C C96A C132U | ≤ -4.2
A20C G74U C108G C132A | ≤ -4.2
A19U U44G G50C A73G C76A G140A | ≤ -4.2
A19U G46A G58C A97U U134A | ≤ -4.2
A20C A29U G74C C87U C93G C96A | ≤ -4.2
A20C C54U G86C U101C U104A | ≤ -4.2
A20C A52U C93U C95A C96A U109A C125U | ≤ -4.2
A20G A29C C43G C63A G86A U90G C116A | ≤ -4.2
A19U A21U C72G A89C C96G G143A | ≤ -4.2
A19U A73G G86U | -1.03
A20C A26U C36U U56A C79A G92U G136U | ≤ -4.2
A20G A39G A89C A97U G126A A147G | ≤ -4.2
A20C G83C C96G | -1.83
A20G C75A U78A C93U C96G G141A | ≤ -4.2
A19U C35G C43A U56A G58U C85U A113G A122C U151A | ≤ -4.2
A20G G25C G58C A106U | -3.93
A20C A22C A39G G71A C85A G94C | ≤ -4.2
A19U C87G C99U G140C | ≤ -4.2
A19U U53A U82G C87G G140A | ≤ -4.2
A19U A28C | ≤ -4.2
A19U A21U A52U G65C C75A C95U A115G | ≤ -4.2

Variant | polymerase ribozyme fitness (log ratio)
A20G A37U U111G | ≤ -4.2
A20G A22C | -0.665
A19U C51G G59C C75G G88A A91U C96U G141C | ≤ -4.2
A19U A52G C54A C93G C125A U145G | ≤ -4.2
A20G C38U G81A C103A G152A | ≤ -4.2
A19U G86C | -2.58
A19U G86U | -1.75
A20C U31G U53A U55G A115C | -2.82
A19U A22U G74A C96U A115U C116G G141U | ≤ -4.2
A20G A60G G81A G92C G126A U139C U144G | ≤ -4.2
A20C U53A G59A C103A G140A | ≤ -4.2
A20G A52C A119U A121U G143C | ≤ -4.2
A20C G46U G68A C76G G84A | ≤ -4.2
A20G C35G A49C A73G C87G | ≤ -4.2
A20G A29G U111C | ≤ -4.2
A19U U53A C85A | -3.78
A20G C32G A52C U55A | ≤ -4.2
A20C C27U C87U G92A U101A | -1.49
A20C A23C C35A C43G C93G A106G | ≤ -4.2
A20C G25U C43A U56A G86A C95A A122G | ≤ -4.2
A19U C27A U33G U53A U56A G67A C69U G94U G128U G140A G143U | ≤ -4.2
A19U C27A A64C G68C C87A A119U A150C | ≤ -4.2
A20G A40C A41U U56A C79U G86A C87A | ≤ -4.2
A20C G50C C54U G58C G62A G86A C125U A142C | ≤ -4.2

Variant | polymerase ribozyme fitness (log ratio)
A20C A29C G84A A150C | ≤ -4.2
A20C A29C A52G U104C | ≤ -4.2
A20C A22U G84U A91C C116A | ≤ -4.2
A19U C51A G86U C95U G141C | ≤ -4.2
A20G A24C U45G G58A A122G C131G | ≤ -4.2
A19U A26C G46U C93A C95G C108A U151G | ≤ -4.2
A19U G71U C79A C85U A110G U134A U151A | ≤ -4.2
A20G A30U G83A A110C U148C | ≤ -4.2
A19U U55A A60G G94U G143U | -3.55
A19U U56A A73G C85G G136C A147C U151G | ≤ -4.2
A19U G25U A49C U55G U56G C85U A98G A106G C118U G133A U145G | ≤ -4.2
A20G A21C C93A A97G | -3.83
A20C A30G U53C G86A U139A A142C | ≤ -4.2
A19U C76G C96U | ≤ -4.2
A19U A26G U44G C54G C95A | ≤ -4.2
A19U A29U A60C G65A C69A C96U A110C | ≤ -4.2
A20C C85G G92C A120G A121C A150G | ≤ -4.2
A20G A30U A49C C69U C93U A110U A138G | ≤ -4.2
A19U C36U G86C C93U G100A G126C | ≤ -4.2
A19U C43U U45A A52C C57U G70A C93A C95G C116G C125G G133U U144G A150C | ≤ -4.2
A20C G84U | -3.03
A20G A29U C93A A97U U139A | ≤ -4.2
A20C G42A G68A C93U | ≤ -4.2
A20G A52C | -1.28

Variant | polymerase ribozyme fitness (log ratio)
A20G C85G | -2.92
A20G A28U G42C A49C C93G C103A | ≤ -4.2
A20C A24U G50C U56A C75U C76A G86A G88C C95A C108U U130C | ≤ -4.2
A20C A47G G48C G94C C95G | ≤ -4.2
A20G A29C G46U C54U C96U C116A U148A | ≤ -4.2
A19U A28U U53G A137G | ≤ -4.2
A20G A23G U31C C32U U45G U53A G68C C76U C87A G92C | ≤ -4.2
A20G A41U G62C A91G A97U G117A C129U G136U | ≤ -4.2
A19U C27A A30G U55A C93A C95U C99G | ≤ -4.2
A20C A40U U61A G92A A97C C116G G141A A150G | ≤ -4.2
A19U A52U A97G | -2.59
A20G A26G A47C G80A C87A C93G | ≤ -4.2
A20C A28U G48C G70A C87G A120G U135C | ≤ -4.2
A19U A26C C38U A89G A98U A107C | ≤ -4.2
A19U A37C G42A A52C C96A | ≤ -4.2
A20C A47C G50C G84A C93A U148A | ≤ -4.2
A19U A23U A39U G59C A60U G86U U109G | ≤ -4.2
A20C G68C G141C | ≤ -4.2
A19U A37C U45A A66C G86A A147C U151G | ≤ -4.2
A20G A22U G70U C85G A110U A121C | ≤ -4.2
A19U A39G G74U C85G G128C C129U | ≤ -4.2
A19U G92C | -1.68
A19U A26G A122G | ≤ -4.2
A19U G25A U61A | ≤ -4.2

Variant | polymerase ribozyme fitness (log ratio)
A20C U44A G48A U90A C95G A137C U144G A150U | ≤ -4.2
A20G A22U U78G C85U C93U G152C | ≤ -4.2
A20G C27A A47G G92A | ≤ -4.2
A20C A29G C75U C93G C96G A110U C129A | ≤ -4.2
A20G G25U U56G G86U U102A C131A | ≤ -4.2
A19U A30U U56A G62C C76U | ≤ -4.2
A20C A52C G68U C87A C99U | ≤ -4.2
A20C C36A A60C G84A G152A | ≤ -4.2
A19U C63U C96U C105G C116A | -2.98
A20G C32A C51G C85A C118U U144A | ≤ -4.2
A19U G42C G86U A110G C116A G117U | ≤ -4.2
A19U A39C A52C C57U A60C C87U | ≤ -4.2
A19U A21U U44A A64C C85G C95U | ≤ -4.2
A20C G84U C99G A106U | ≤ -4.2
A20G A41G C54G G80C C93U G117A | ≤ -4.2
A20G C32A A39U U134C A137C | ≤ -4.2
A19U A37C U135G | -3.82
A20G C35U G59C C75A A142U G143A | ≤ -4.2
A19U C54U A73C G83U G94U C116G U144A | ≤ -4.2
A20G A21G C79U C93A A98G C103U | ≤ -4.2
A20C A30C A49C C93G C103G | ≤ -4.2
A19U C87U G141U U146C | 0.666
A19U G92A C105A | ≤ -4.2
